Experimental findings from PubChem BioAssay AID488969 (Vanderbilt High Throughput Screening Facility, 2010) are described below.

The structures appear in SMILES notation. In all, about 110,000 compounds were measured (“z-score”: median about -0.1, highest 2% from about 2 on). The list shows a part of the results. Activity calls are given as the source filed them.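 How the source made its calls: active means z-score in the third read window above 3 or below -3; inactive means the rest.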

The target in the experiment is Metabotropic glutamate receptor 8 (Rattus norvegicus) (UniProt P70579). Nature of the experiment: rat mGluR8 modulators via GIRK flux, primary screen, cell-based, thallium flux, HTS (AID 488969). The settings on record: HEK293 rat mGluR8, GIRK (G protein-gated inwardly rectifying potassium channel) thallium flux, FluoZin2; at 10 µM; stronger effect = higher value; submaximal glutamate (EC20) added with thallium.
Sequence of UniProt P70579 (P70579 whole entry, looked up): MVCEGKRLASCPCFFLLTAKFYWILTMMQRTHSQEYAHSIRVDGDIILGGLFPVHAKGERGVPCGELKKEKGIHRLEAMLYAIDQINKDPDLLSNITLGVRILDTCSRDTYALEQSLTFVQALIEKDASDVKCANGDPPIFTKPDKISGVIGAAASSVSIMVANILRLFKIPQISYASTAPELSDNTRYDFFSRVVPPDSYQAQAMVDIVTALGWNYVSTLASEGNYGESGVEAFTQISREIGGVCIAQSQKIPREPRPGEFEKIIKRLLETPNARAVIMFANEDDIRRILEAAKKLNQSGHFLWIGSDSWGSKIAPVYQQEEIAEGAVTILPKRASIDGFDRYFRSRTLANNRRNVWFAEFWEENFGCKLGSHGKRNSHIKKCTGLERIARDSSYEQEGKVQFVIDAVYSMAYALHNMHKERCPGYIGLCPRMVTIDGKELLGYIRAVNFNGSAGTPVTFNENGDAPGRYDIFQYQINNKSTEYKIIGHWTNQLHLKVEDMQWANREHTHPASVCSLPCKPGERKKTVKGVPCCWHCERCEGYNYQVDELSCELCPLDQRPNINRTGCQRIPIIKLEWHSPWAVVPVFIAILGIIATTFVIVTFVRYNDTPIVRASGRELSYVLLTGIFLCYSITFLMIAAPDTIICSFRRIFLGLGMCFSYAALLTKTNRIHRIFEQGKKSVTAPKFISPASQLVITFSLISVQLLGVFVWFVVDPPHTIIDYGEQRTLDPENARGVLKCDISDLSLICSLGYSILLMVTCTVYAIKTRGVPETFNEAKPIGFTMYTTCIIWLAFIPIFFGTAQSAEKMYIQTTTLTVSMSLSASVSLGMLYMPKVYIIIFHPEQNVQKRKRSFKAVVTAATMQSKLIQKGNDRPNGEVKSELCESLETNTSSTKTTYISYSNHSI
Compound `CC1CCC(NC(=O)Cn2ncc3ccccc32)CC1` (stereo unspecified) displayed a z-score of -0.134.
The figure for `C/C(N)=C(/C#N)C(=O)COC(=O)CCSc1ccccc1` is -0.31; for `COc1ccc(NC(=S)N(Cc2ccc(N(C)C)cc2)Cc2ccco2)cc1` it is 0.23.
On to `CCOc1ccc(Nc2ncnc(N)n2)cc1`, for which the z-score was active: 4.23.
Compound `CN(Cc1ccccc1)C(=O)CSc1nc2c(c(C(F)(F)F)n1)CCc1ccccc1-2` returned a z-score of -0.0605.
As for `Clc1cccc(Cl)c1COn1nnc2ccccc21`, the z-score was -0.938.
The figure for `COc1ccc2[nH]c(=O)c(CN(Cc3ccccc3OC)Cc3nnnn3CC3CCCO3)cc2c1` (stereo unspecified) is -0.28.
On to `C=CCn1c(=NC(=O)CN2C(=O)CCC2=O)sc2cc(S(N)(=O)=O)ccc21`, for which the z-score was -0.0734.
With `Cc1cc(C)c2[nH]c(=S)cc(C)c2c1`, the z-score was active: 5.14.
As to `CCCC1S/C(=N/N=C/c2ccc(C)cc2)N(Cc2ccc(OC)cc2)C1=O` (stereo unspecified), the z-score was 0.151.
Under `COC(=O)C(C)N1C(=O)S/C(=C/c2cc(C)n(C(C)C)c2C)C1=O` (stereo unspecified) stands -0.406; under `CC(=O)c1cnc2cc(-c3ccc(C)cc3)nn2c1C`, -0.0131; under `COc1cc(C(=O)NCCOc2ccccc2)c(Br)c(OC)c1OC`, -0.025.
The compound `COc1ccccc1NC(=S)NC(NC(=O)c1ccco1)C(Cl)(Cl)Cl` (stereo unspecified) came in with a z-score of -0.246.
Under `CCn1c(N)c(C(=O)NCCOC)sc1=S` stands 0.268; under `CC(=O)/C(=N/Nc1ccccc1)N1CCOCC1`, -0.0701.
In the case of `CCN(CC)C(=O)c1cnn(-c2ccccc2)c1NC(=O)c1ccccc1F`, the z-score is -0.221.
Under `O=C(CSc1nc(-c2ccco2)cc(C(F)(F)F)n1)NCC1CCCO1` (stereo unspecified) stands -0.0881; under `Cn1c(=O)c2c(ncn2CC(=O)NC(C)(C)C)n(C)c1=O`, 0.319.
Under `COc1cccc(C2C(C(C)=O)=C(O)C(=O)N2CCc2c[nH]c3ccccc23)c1` (stereo unspecified) stands -0.32; under `O=C(CN1C(=O)COc2ccc(Cl)cc21)N1CCc2ccccc21`, 0.45; under `CNc1nc(Cl)nc(NC(C)(C)C)n1`, active: 7.77.
`CN(C)S(=O)(=O)c1cc(NC(=O)CN2C(=O)NC3(CCCc4ccccc43)C2=O)ccc1Cl` (stereo unspecified) returned a z-score of 0.654.
Under `COc1c(Cl)cc(Cl)cc1C(=O)Nc1ccc(NC(=O)c2cccs2)cc1` stands 0.021; under `COCC(=O)n1nc(NCc2ccc(OC)cc2)nc1NCc1ccc(OC)cc1`, -0.00999; under `N=c1c2c(-c3ccccc3)c(-c3ccccc3)oc2ncn1Cc1ccco1`, -0.188.
On to `COCCNC(=O)c1ccccc1NC(=O)c1ccc(Cl)c(S(=O)(=O)Nc2ccc(C)cc2C)c1`, for which the z-score is -0.243.
Turning to `COC(=O)c1[nH]c2ccccc2c1NC(=O)c1ccccc1[N+](=O)[O-]`, the z-score was -0.351.
In turn, `CC1CCCC(C)N1/N=C/c1cc(Br)c(O)c(Br)c1` (stereo unspecified) came in with a z-score of -0.155.
The figure for `C=CCn1c(SCC(=O)c2ccc(Br)cc2)nnc1C(CC(C)C)NC(=O)c1cccs1` (stereo unspecified) is -0.413; for `C=CCn1c(C#N)c(N)sc1=N` it is 0.591.
For the compound `CNS(=O)(=O)c1cc(C(=O)OCC(=O)NC2CCCc3ccccc32)ccc1Cl` (stereo unspecified), the z-score is -0.391.
For the compound `CCOC(=O)CN(C(=O)c1ccccc1)c1ccccc1C`, the z-score was -0.114.
Compound `CCn1c(CNc2ccc(F)cc2)nnc1SCC(=O)Nc1ccc(OC)cc1OC` gave a z-score of 0.601.
`CCCc1nc(SCC(=O)Nc2nnc(CC)s2)c2c(C)c(C)sc2n1` registered a z-score of -0.42.
The figure for `CCCOc1ccc(C(=O)NNC(=S)NC(=O)CC)cc1` is active: 3.01.
Regarding `O=C(CSc1nc(O)cc(=O)n1-c1ccccc1)N1CCCCC1`, the z-score was active: 4.46.
Consider `O=C1c2cccc3cc(Br)cc(c23)C(=O)N1Nc1ccccc1`, for which the z-score was -0.392.
The figure for `Cc1cc(C)cc(NC(=O)CCNS(=O)(=O)c2ccc3c(c2)oc(=O)n3C)c1` is -0.318; for `CCn1c(=S)[nH]c2cc(C(=O)OC)ccc2c1=O` it is active: 7.77.
Under `COc1ccc(-c2coc3cc(O)ccc3c2=O)cc1OC` stands -1.04; under `OCCNCCCOc1ccc(Cl)cc1Br`, 0.496; under `O=C(NCC(=O)N(Cc1ccccc1)C(C(=O)NC1CCCCC1)c1ccco1)c1ccco1` (stereo unspecified), 0.0119.
Under `CCCCc1ccc(-c2ccc(C)cc2O)nc1` stands 0.053.
In turn, `O=C(NN=C1CCCCCCC1)c1ccccn1` showed a z-score of 0.0607.
With `Cn1c(=O)c2c(nc(CN3CCN(c4cccc(Cl)c4)CC3)n2CCc2ccccc2)n(C)c1=O`, the z-score was 0.0762.
Take `O=S(=O)(NCCc1ccccn1)c1cccs1`: the z-score is 0.136.
Under `COc1ccc(C2C(C(=O)c3ccco3)=C(O)C(=O)N2Cc2cccnc2)cc1OC` (stereo unspecified) stands 0.59; under `O=C(O)c1ccc2c(c1)C(=O)N(Cc1ccccc1)C2=O`, -1; under `COC(=O)CCc1c(C)c(C#N)c2nc3ccccc3n2c1N1CCCC1`, -0.478.
Under `CSc1ccccc1NC(=O)c1cnccn1` stands 1.79; under `Cc1ccc(NC(=S)NC2CCCC2)cc1`, -0.118.
`CCOC(=O)/C(N=Nc1c(Br)cc(Br)cc1Br)=C(\C)O` had a z-score of 0.239.
With `COc1cccc(NC(=O)CSc2ccccn2)c1`, the z-score was 0.192.
The figure for `O=C(O)c1cn(-c2ccc(F)c(F)c2)c2c(F)c(F)c(F)c(F)c2c1=O` is -0.0414; for `CSCCC(NC(=O)C1CCC(C)CC1)C(=O)NCc1ccco1` (stereo unspecified) it is -0.0295.
Under `Cc1ccccc1OCC(=O)Nc1ccc(N2CCN(S(C)(=O)=O)CC2)cc1` stands 0.137.
Under `O=c1c2ccccc2c(C=Nc2cccc(S(=O)(=O)NCc3ccco3)c2)c(O)n1-c1ccc(Cl)cn1` stands -0.105.
For `NC(=O)c1ccsc1NC(=O)COc1ccccc1`, the z-score came to 0.861.
For `N#Cc1c(/N=C/c2cc(Br)cs2)sc2c1CCC2`, the z-score is -0.0914.
Under `O=C(NNC(=O)c1ccccc1O)c1ccc(Cl)cc1` stands -0.389; under `COc1ccc(/C=C(\C#N)C(=O)NCCc2ccccc2)cc1OCc1ccccc1`, -0.0863; under `Cc1cc(NC(=O)COC(=O)C(Cc2ccccc2)NC(=O)c2ccco2)no1` (stereo unspecified), -1.25.
`CCC(Sc1nc(C)cc(=O)[nH]1)C(=O)Nc1sc2c(c1C#N)CCCC2` (stereo unspecified) showed a z-score of 0.29.
Under `COc1ccc(CCCc2nnc(SCC(=O)Nc3ccc(C)c(C)c3)o2)cc1` stands -0.276.
As to `C=CCSc1nc2sc(-c3ccccc3)cc2c(=O)n1N`, the z-score came out at 0.177.
Under `NC(=O)CSc1nnc(-c2ccc(S(=O)(=O)N3CCOCC3)cc2)n1CC1CCCO1` (stereo unspecified) stands 0.058; under `COC(=O)C1CCN(C(=O)c2cc3ccccc3oc2=O)CC1`, -0.0907.
Turning to `CCCN1CCC(=NNC(=O)c2ccc(Br)o2)CC1`, the z-score is 0.0167.
For `CCSc1nnc(NC(=O)CN(C)S(=O)(=O)c2ccc(F)cc2)s1`, the z-score is -0.521.
The figure for `CCCCCCCCCOC(=O)C[n+]1csc(CCO)c1C` is 0.0302.
Take `c1ccc2c(c1)CCCN2c1nc2ccccc2n2cnnc12`: the z-score was -0.203.
Compound `Cc1ccc(-c2cc(C(=O)N(C)Cc3cnn(C)c3C)c3cc(Br)ccc3n2)cc1` displayed a z-score of -0.388.
Compound `Cc1ccc2cccc(NC(=S)NC(=O)c3c(Br)cnn3C)c2n1` came in with a z-score of 0.727.
Take `Clc1ccc(-c2ccc(/C=N/Nc3cc(N4CCOCC4)nc(N4CCOCC4)n3)o2)cc1`: the z-score is -0.432.
Consider `N#CC1=C(N)SC(N)=C(C#N)C1CCc1ccccc1`, for which the z-score was active: -3.05.
Under `COc1cc(C(=O)Nc2sc3c(c2C(=O)NCc2ccco2)CCCC3)cc(OC)c1OC` stands 0.0376; under `CSc1nc2ccccc2cc1/C=C(\C#N)c1ccccc1`, 0.0152; under `CCCC(=O)N1CCN(c2ccc([N+](=O)[O-])cc2Cl)CC1`, 0.00135.
In turn, `COc1ccc(Cl)cc1S(=O)(=O)Oc1ccc(NC(C)=O)cc1` yielded a z-score of -0.267.
Compound `Cc1cc2cc(CN(Cc3ccco3)S(=O)(=O)c3c(C)ccc4nsnc34)c(=O)[nH]c2cc1C` yielded a z-score of -0.0899.
The figure for `CS(=O)(=O)c1ccc(N)cc1` is 0.0786; for `O=C(CSc1nc2ccccc2[nH]1)N1CCN(S(=O)(=O)c2ccc(Cl)cc2)CC1` it is -0.563; for `COc1cccc(Cn2cnc3c(NS(=O)(=O)c4ccc(Cl)cc4)c(C)c(C)cc32)c1` it is 0.166.
The compound `COc1cnc(-c2ccccn2)nc1Oc1ccc(Cl)cc1` gave a z-score of -0.376.
Under `COc1ccc(S(=O)(=O)Cc2ccc(C(=O)N3CCN(c4ccccc4F)CC3)o2)cc1` stands -0.0707; under `O=C1CN(C(=O)COc2ncnc3ccccc23)c2ccccc2N1`, -0.237.
With `CCCCn1c(CCNC(=O)c2cccs2)nc2ccccc21`, the z-score was found to be 0.225.
Under `Nc1nonc1C(=O)NCCNCc1cc(Br)ccc1OCc1ccccc1F` stands active: 4.61.
Take `O=S1(=O)CCC(N=Cc2cc(Br)ccc2O)C1` (stereo unspecified): the z-score is -0.293.
The compound `CCOC(=O)N1CCC(N2Cc3cccc(C(=O)Nc4cc(F)ccc4F)c3C2=O)CC1` came in with a z-score of -0.36.
The figure for `COc1cccc2cc(C(=O)NC(C)C3CCCO3)c(=O)oc12` (stereo unspecified) is 0.105; for `COc1ccc(NC(=O)CSc2nnc(Cc3cccn3C)n2-c2ccc(F)cc2)cc1OC` it is -0.626; for `CCN(CC(=O)NC1CCS(=O)(=O)C1)S(=O)(=O)c1ccc(F)cc1` (stereo unspecified) it is 0.393.
As to `N#C/C(=C\c1ccc[nH]1)C(=O)NC1CC1`, the z-score was -0.315.
The compound `O=C(OCc1ccc(F)cc1Cl)c1ccccn1` returned a z-score of -0.402.
Compound `NNc1nc(N)c2c(n1)-c1ccccc1CC21CCCC1` came in with a z-score of -0.24.
The compound `COCCn1c(SCCCC(=O)c2ccc(Br)cc2)nnc1-c1ccncc1` showed a z-score of -0.169.
For `CCn1c(COc2ccccc2C)nnc1SCC(=O)N1CCN(c2ccccc2)CC1`, the z-score is -0.308.
Under `CCOC(=O)N1CCN(C(=O)c2ccc3c(=O)n(Cc4ccc(Cl)cc4)c(=S)[nH]c3c2)CC1` stands 0.798.
`O=C(O)c1ccc(C(=O)O)c(C(=O)c2ccccc2)c1` came in with a z-score of 0.0505.
The figure for `O=C(Cn1ncc2c1-c1ccccc1OC2)Nc1nc2ccccc2s1` is 0.996; for `O=C(c1cnccn1)N(Cc1ccco1)C1(C(=O)NC2CCCC2)CCCCC1` it is -0.0484; for `O=C1N=C2SCCN2/C1=C\c1c(Cl)cccc1Cl` it is -0.354.
Under `CC(=O)C1=C(C)NC(=O)NC1c1ccccc1OCC(=O)NCCc1ccccc1` (stereo unspecified) stands -0.246.
The figure for `O=C(/C=C/c1ccccc1)NC(=S)Nc1cccnc1` is -0.00695.
The compound `COc1cccc(-n2nnc3c(=O)n(CC(=O)NCC4CCCO4)cnc32)c1` (stereo unspecified) displayed a z-score of -0.23.
Under `Cc1nc2c(C(=O)NCc3ccc4c(c3)OCO4)c[nH]n2c(=O)c1Cc1ccccc1F` stands -0.36.
Under `O=C(Oc1nsnc1N1CCOCC1)N(c1ccccc1)c1ccccc1` stands -1.85; under `COc1ccc(NC(=O)CN2CCc3ccccc3C2)cc1S(=O)(=O)N1CCOCC1`, -0.285; under `Cc1cccc2cc(CN(CCN3CCOCC3)C(=O)Nc3ccccc3F)c(=O)[nH]c12`, -0.15.
